Reference: the supplement of paper PMC11417369
± gives the standard deviation of the averaged measurements. The list shows a part of the results.

system: PfAP2-I AP2 domain 3 (GST-tagged); assay: gcPBM binding intensity (ln(normalized median fluorescence intensity)); higher = stronger DNA binding
How it was run: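 Each value is the highest Masliner-normalised natural-log median intensity across replicate spots of either orientation of a probe. The probes were primer-extended double-stranded 36-bp intergenic genomic sequences on an Agilent 4 × 180k array, alongside negative controls, exposed for 1 h to GST-tagged P. falciparum DNA-binding domains expressed in E. coli. Bound protein was picked up with Alexa488 anti-GST antibody and scanned at 488 nm.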

Point of comparison: “TATTGTATATAATAAACACACAATATTAAAAATATA [CACACA_site1057]”, “gcPBM binding intensity (ln)” value 7.4 ± 0.52. Against it:
- CCCCTCGAAATAATTTGTACGAATATATTGTCTGTA [XGTACX_site8308] — higher, 9.12 ± 0.28
- AGTATATTAAAAAATACACACGTATTATATCTACAT [CACACA_site8844] — within error, 7.55 ± 0.55
- GTTCATAAATTAAACACACACACACCGCTGGATACC [CACACA_site5779] — higher, 8.49 ± 0.34
- TATTTAAAAAACACATGTACGAGTATTATATATAAA [XGTACX_site6654] — within error, 7.73 ± 0.52
- ACATGCAACCATTCGGGTACAGAAATAAATATATAC [XGTACX_site4174] — within error, 7.99 ± 0.62
- CTTTTTCGCATGAAAAGTACATGAAATATATTACAT [XGTACX_site8971] — within error, 7.7 ± 0.31
- AATAACTTTTTAAACACACACACATATAAATAAATA [CACACA_site6196] — within error, 7.96 ± 0.49
- GGTTATAACGCACATGCACACGTAAATAAATATTAT [CACACA_site9277] — higher, 10.8 ± 0.84
- TAAATTTTAATAAATACACACAAATTTTAATTCTAT [CACACA_site6039] — within error, 7.51 ± 0.44
- ATATTAAAATACAGTGCATGTTAAAAATATATTATA [TGCATGCA_site977] — higher, 9.095 ± 0.035
- TTATAACATCTTAAATGTACAAATATGTGCTTATTT [XGTACX_site7285] — within error, 7.91 ± 0.36
- TAAAAAAAAAACATCTGTACCAATTTTTATGTATAA [XGTACX_site5196] — within error, 7.46 ± 0.57
- AATAAAAGTTCACCTGTACACACATATATATATGTA [CACACA_site8500] — within error, 7.96 ± 0.57
- ATGTATTTATATACTTGTACGTAAGATGTATTATAT [XGTACX_site908] — within error, 7.86 ± 0.53
- ATTGGAAAATATGTTATATATATATATATATATATG [CACACA_negctrl_site116] — higher, 8.53 ± 0.42
- TTAATTCGTACATACACACGCACATATATATATATA [CACACA_site1469] — higher, 9.39 ± 0.21
- AATAATAATAGAAACACACACACATCTTTAATAATA [CACACA_site4805] — within error, 7.73 ± 0.57
- ATATTTTTTTTCTACACACATACAAATATATATTAT [CACACA_site2359] — within error, 8.33 ± 0.51
- AGGAATATCGAAAACTGTACTTGTATGTTTCATAAA [XGTACX_site6143] — within error, 7.6 ± 0.51
- TATAAAAATAATATTACACACATGTAAAATGGGGGT [CACACA_site9071] — higher, 8.57 ± 0.11
- AATTGTATGTATGCCTGTACATATGTCTATCTTAAG [XGTACX_site1927] — within error, 7.65 ± 0.41
- TATTTTATATGAGGCACACAAATTTTAATTGTTATT [CACACA_site725] — within error, 7.67 ± 0.55
- ATTTATTTATTTTTTTGTACTTATAATTTTTATTAT [XGTACX_site2656] — within error, 7.79 ± 0.35
- TATATTTAAATTCTTTCAAATCATGTTGTAATTTTT [CACACA_negctrl_site1349] — within error, 7.42 ± 0.61
